Data reported in article PMC5515716 (Journal of immunology (Baltimore, Md. : 1950), 2017).

Tested on: CD8^+ T cells in PBMC of HSV-seropositive individuals
Assay: CD107a/b cytotoxicity marker assay on peptide-stimulated CD8+ T cells
Type: cell-based, human
Details: 10 HLA-A*0201(+) HSV-1 seropositive individuals, individual peptide 10µg/ml

Q: With ALMLRLLRT [UL9_196–204] as the sequence, how does the “percentage of CD107^a/b+CD8^+ T cells induced by individual peptide” value (from here on “percentage”) read?
A: Its value is “up to 5.1%”.

Q: FIPQYLSAV [UL25_572–580] was tested. Which “percentage” value did it give?
A: The value was “up to 4.5%”.

Q: With FLGAGALAV [UL43_272–280] as the sequence, how does the “percentage” value read?
A: Its value is “up to 4.9%”.

Q: For FLGDDPSPA [UL44_400–408], which “percentage” value is on record?
A: Its value is “up to 5.7%”.

Q: For FLGGHVAVA [UL43_302–310], which “percentage” value is on record?
A: Its value is “up to 5.6%”.

Q: How did the “percentage” value turn out when MMLRDRWSL [UL26_221–229] was run?
A: Its value is “up to 4.7%”.

Q: How did the “percentage” value turn out when QLAHLVYVL [UL10_162–170] was run?
A: Its value is “up to 6.8%”.

Q: How did the “percentage” value turn out when RLTGYPAGI [UL44_443–451] was run?
A: Its value is “up to 5.1%”.

Q: With TLRGLFFSV [UL43_386–394] as the sequence, how does the “percentage” value read?
A: Its value is “up to 5.2%”.

Where no end group is shown, it is not given here.
